# Test results as given in PubChem BioAssay (NCATS).
# The inconclusive results got no clear call from the source; some entries with a clear call stand among them for comparison. For some assays here: Potencies of inconclusive entries are doubtful fits and often do not repeat. For some assays here: A note “side channel” means that the fit belongs to a control or component signal, not to the main read-out. The source made the active and inactive calls. Unless noted, calls follow the shape of the full dose curve.
# Columns and labels:
# [1] = MultiTox-Fluor Cytotoxicity Assay - LYMP1-002 - Dead Cells (AID 960; active = well fitted curve in the direction sought with a large enough effect; inconclusive = small, poorly fitted or top-dose-only effect, or another doubt; inactive = no such curve, though single readings can be large; an effect the other way counts as inactive or inconclusive; also: potency is read from the fitted curve at half-maximal effect; nearly all actives have a fitted effect of over 60% in size); settings: LYMP1-002 lymphoblastoid cells, dead-cell protease fluorescence; cytotoxicity (dead cells): at 46.1 µM (top of the series)
# In short: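 Dead-cell fluorescence (Ex/Em 485/520) after 16 h compound exposure at 37 C of LYMP1-002 lymphoblastoid cells in complete medium; AC50 by Hill equation, with data scaled between DMSO and 15 uM tetraoctylammonium bromide.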
# [2] = molecular target: Androgen receptor (Homo sapiens) (UniProt P10275); assay: qHTS assay for small molecule antagonists of androgen receptor signaling (AID 588516; active = well fitted curve in the direction sought with a large enough effect in the signal ratio, with a control signal flat, not every such curve was filed as active; inconclusive = small, poorly fitted or top-dose-only effect, or effect the other way, or a change in a side signal; inactive = no such curve, though single readings can be large or run the other way; the % refers to the signal ratio; also: potency is read from the fitted curve at half-maximal effect); settings: AR-UAS-bla HEK293, beta-lactamase ratio, antagonist mode, 16 h; activity change, negative = inhibition: at 76.8 µM (top of the series)
# UniProt P10275, sequence (P10275 whole entry, looked up): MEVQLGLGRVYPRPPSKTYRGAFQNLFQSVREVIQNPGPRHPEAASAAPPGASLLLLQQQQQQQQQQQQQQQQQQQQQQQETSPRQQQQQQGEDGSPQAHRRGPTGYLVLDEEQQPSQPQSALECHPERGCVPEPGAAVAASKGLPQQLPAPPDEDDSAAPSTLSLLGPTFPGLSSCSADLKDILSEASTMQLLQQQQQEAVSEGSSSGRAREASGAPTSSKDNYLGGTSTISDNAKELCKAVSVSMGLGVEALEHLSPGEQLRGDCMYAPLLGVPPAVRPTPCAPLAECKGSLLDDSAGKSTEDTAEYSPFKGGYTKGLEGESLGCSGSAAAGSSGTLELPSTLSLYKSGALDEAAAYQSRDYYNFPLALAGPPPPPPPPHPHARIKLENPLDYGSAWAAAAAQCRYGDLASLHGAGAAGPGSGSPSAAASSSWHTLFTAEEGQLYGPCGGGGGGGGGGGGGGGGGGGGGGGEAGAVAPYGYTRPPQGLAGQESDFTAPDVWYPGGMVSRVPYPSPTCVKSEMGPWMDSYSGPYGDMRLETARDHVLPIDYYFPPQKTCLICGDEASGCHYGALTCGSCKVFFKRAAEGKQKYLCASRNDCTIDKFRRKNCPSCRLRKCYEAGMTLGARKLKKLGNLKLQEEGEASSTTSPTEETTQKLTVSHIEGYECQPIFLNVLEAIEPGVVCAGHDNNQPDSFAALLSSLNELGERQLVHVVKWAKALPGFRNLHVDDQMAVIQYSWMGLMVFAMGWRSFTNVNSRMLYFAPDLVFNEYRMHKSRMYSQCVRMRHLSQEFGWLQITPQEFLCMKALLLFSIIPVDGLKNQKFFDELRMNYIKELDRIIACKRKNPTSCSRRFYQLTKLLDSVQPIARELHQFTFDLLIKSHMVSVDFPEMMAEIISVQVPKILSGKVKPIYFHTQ
# In short: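 Antagonist mode: inhibition of R1881-stimulated (10 nM final) bla reporter in GeneBLAzer AR HEK 293 cells, 16 h at 37C, compounds titrated. IC50 and efficacy from Hill-equation fits of 405/460–530 nm FRET ratios.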
# [3] = molecular target: Bile acid receptor (Homo sapiens) (UniProt Q96RI1); assay: qHTS assay for small molecule antagonists of farnesoid X receptor signaling (AID 588526); settings: HEK293T FXR-UAS-bla, beta-lactamase ratio, antagonist mode; activity change, negative = inhibition: at 76.7 µM (top of the series); also: potency is read from the fitted curve at half-maximal effect
# In short: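 Antagonist mode: titrated compounds tested against chenodeoxycholic acid stimulation (normalized to 50 uM CDCA and DMSO) in GeneBLAzer HEK293T cells for 16 h. Beta-lactamase read by CCF4 fluorescence; IC50 from Hill fits.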
# [4] = molecular target: Bile acid receptor (Homo sapiens) (UniProt Q96RI1); assay: qHTS assay for small molecule agonists of farnesoid X receptor signaling (AID 588527); settings: HEK293T FXR-UAS-bla, beta-lactamase ratio, 16 h; activation: active compounds read high; also: potency is read from the fitted curve at half-maximal effect
# In short: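 Read-out: beta-lactamase reporter fluorescence with CCF4 substrate in GeneBLAzer FXR-UAS-bla HEK293T cells, after 16 h compound exposure at 37 C. Response scaled between DMSO basal (0%) and chenodeoxycholic acid at 100 uM (100%).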
# [5] = molecular target: Peroxisome proliferator-activated receptor delta (Homo sapiens) (UniProt Q03181); assay: qHTS assay for small molecule agonists of peroxisome proliferator-activated receptor delta signaling (AID 588534); settings: HEK293T PPARdelta-UAS-bla, beta-lactamase ratio, 18 h; activation: at 76.7 µM (top of the series) unless noted; also: potency is read from the fitted curve at half-maximal effect
# UniProt Q03181, sequence (Q03181 whole entry, looked up): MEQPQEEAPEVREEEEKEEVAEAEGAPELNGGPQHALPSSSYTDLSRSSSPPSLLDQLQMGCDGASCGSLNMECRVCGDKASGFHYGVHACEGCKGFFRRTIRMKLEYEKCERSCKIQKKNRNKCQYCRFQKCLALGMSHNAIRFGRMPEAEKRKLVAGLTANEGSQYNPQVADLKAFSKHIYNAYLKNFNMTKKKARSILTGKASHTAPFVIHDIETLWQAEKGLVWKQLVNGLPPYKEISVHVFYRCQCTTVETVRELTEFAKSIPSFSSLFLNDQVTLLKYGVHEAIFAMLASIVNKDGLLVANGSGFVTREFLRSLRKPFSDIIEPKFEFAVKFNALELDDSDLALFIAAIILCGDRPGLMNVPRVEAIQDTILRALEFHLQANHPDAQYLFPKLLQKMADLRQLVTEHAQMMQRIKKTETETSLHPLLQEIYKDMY
# In short: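 Agonist-mode beta-lactamase reporter readout (CCF4 dye, 2 h at RT) after 18 h at 37 °C exposure to a titration; Hill-equation fitting gave EC50 and maximal response.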
# [6] = molecular target: Peroxisome proliferator-activated receptor delta (Homo sapiens) (UniProt Q03181); assay: qHTS assay for small molecule antagonists of peroxisome proliferator-activated receptor delta signaling (AID 588535; active = well fitted inhibition curve with a large enough effect in the signal ratio, with a control signal flat, not every such curve was filed as active; inconclusive = small, poorly fitted or top-dose-only effect, or effect the other way, or a change in a side signal; inactive = no such curve, though single readings can be large or run the other way; the % refers to the signal ratio; also: potency is read from the fitted curve at half-maximal effect); settings: HEK293T PPARd-UAS-bla, beta-lactamase FRET ratio, 18 h; activity change, negative = inhibition: at 76.7 µM (top of the series) unless noted
# In short: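 Fluorescence from CCF4-loaded GeneBLAzer PPAR-delta-UAS-bla HEK293T cells (2 hrs RT loading) quantified reporter inhibition after an 18 hr, 37 C compound exposure across a titration.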
# [7] = molecular target: Peroxisome proliferator-activated receptor gamma (Homo sapiens) (UniProt P37231); assay: qHTS assay for small molecule agonists of peroxisome proliferator-activated receptor gamma signaling (AID 588536; active = well fitted curve in the direction sought with a large enough effect in the signal ratio, with a control signal flat, not every such curve was filed as active; inconclusive = small, poorly fitted or top-dose-only effect, or effect the other way, or a change in a side signal; inactive = no such curve, though single readings can be large or run the other way; the % refers to the signal ratio;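 also: 0% = DMSO basal wells and 100% = rosiglitazone at 2 µM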); settings: HEK293 PPARg-UAS-bla, beta-lactamase ratio, 16 h; activation: at 76.7 µM (top of the series), percent of rosiglitazone response, DMSO as zero
# In short: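 Beta-lactamase reporter read-out: CCF4 fluorescence (ex 405, em 460/530 nm) after 2 h at RT. HEK293 GeneBLAzer cells were treated for 16 h at 37 C. Hill fits gave EC50 and efficacy versus 2 uM rosiglitazone (100%) and DMSO (0%).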
# [8] = molecular target: Peroxisome proliferator-activated receptor gamma (Homo sapiens) (UniProt P37231); assay: qHTS assay for small molecule antagonists of peroxisome proliferator-activated receptor gamma signaling (AID 588537; active = well fitted inhibition curve with a large enough effect in the signal ratio, with a control signal flat, not every such curve was filed as active; inconclusive = small, poorly fitted or top-dose-only effect, or effect the other way, or a change in a side signal; the % refers to the signal ratio); settings: HEK293 PPARg-UAS-bla, beta-lactamase ratio, antagonist mode; activity, negative = inhibition: at 76.8 µM (top of the series) unless noted
# In short: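 Fluorescence at 460 and 530 nm (405 nm excitation) reported beta-lactamase cleavage of CCF4 after 2 h room-temperature loading. HEK293 reporter cells in 1% charcoal/dextran-treated FBS had received compound and rosiglitazone for 16 h.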
# [9] = molecular target: Vitamin D3 receptor (Homo sapiens) (UniProt P11473); assay: qHTS assay for small molecule agonists of vitamin D receptor signaling (AID 588543); settings: HEK293T VDR-UAS-bla, beta-lactamase ratio, 16 h; activation: at 76.8 µM (top of the series); also: potency is read from the fitted curve at half-maximal effect
# In short: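 Agonist-mode beta-lactamase reporter: HEK293T VDR-UAS-bla cells in charcoal-stripped 2% FBS, compound series 16 h 37 C, CCF4 2 h RT. EC50 from Hill fit, scaled against DMSO and 50 nM calcitriol control.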
# [10] = molecular target: Retinoic acid receptor RXR-alpha (Homo sapiens) (UniProt P19793); assay: qHTS assay for small molecule agonists of retinoid X receptor alpha signaling (AID 588544); settings: HEK293T RXRa-UAS-bla, beta-lactamase reporter, 18 h; activation: at 76.7 µM (top of the series); also: potency is read from the fitted curve at half-maximal effect
# UniProt P19793, sequence (P19793 whole entry, looked up): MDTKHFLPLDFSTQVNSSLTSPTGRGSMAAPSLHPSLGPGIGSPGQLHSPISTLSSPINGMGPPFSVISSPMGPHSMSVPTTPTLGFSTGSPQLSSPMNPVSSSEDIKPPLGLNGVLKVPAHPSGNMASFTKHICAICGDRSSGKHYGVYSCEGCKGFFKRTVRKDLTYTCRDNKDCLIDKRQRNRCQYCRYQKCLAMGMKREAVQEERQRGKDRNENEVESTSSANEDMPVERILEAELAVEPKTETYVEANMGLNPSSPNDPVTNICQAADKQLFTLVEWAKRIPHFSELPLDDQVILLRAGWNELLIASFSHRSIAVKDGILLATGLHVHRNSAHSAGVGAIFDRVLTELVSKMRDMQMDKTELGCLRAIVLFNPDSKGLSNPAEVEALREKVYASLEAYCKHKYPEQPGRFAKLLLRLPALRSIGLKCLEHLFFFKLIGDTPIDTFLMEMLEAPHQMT
# [11] = molecular target: Retinoic acid receptor RXR-alpha (Homo sapiens) (UniProt P19793); assay: qHTS assay for small molecule antagonists of retinoid X receptor alpha signaling (AID 588546; active = well fitted inhibition curve with a large enough effect in the signal ratio, with a control signal flat, not every such curve was filed as active; inconclusive = small, poorly fitted or top-dose-only effect, or effect the other way, or a change in a side signal; inactive = no such curve, though single readings can be large or run the other way; the % refers to the signal ratio;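 also: cells stimulated with 9-cis-retinoic acid as agonist; % is scaled to controls: 0 for no effect and ±100 for the full control effect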); settings: HEK293T RXRa-UAS-bla, beta-lactamase ratio, antagonist mode
# In short: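 Beta-lactamase reporter inhibition, read as CCF4 fluorescence ratio (ex 405, em 460/530 nm) after 2 h at RT. HEK293T UAS-bla cells, 2500/well, were stimulated with 9-cis-RA at 500 or 100 nM final alongside test compound for 18 h at 37 C.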
# [12] = molecular target: Thyroid hormone receptor beta (Homo sapiens) (UniProt P10828); assay: qHTS assay for small molecule antagonists of thyroid hormone receptor beta signaling (AID 588547; active = well fitted inhibition curve with a large enough effect in the signal ratio, with a control signal flat, not every such curve was filed as active; inconclusive = small, poorly fitted or top-dose-only effect, or effect the other way, or a change in a side signal; the % refers to the signal ratio; also: potency is read from the fitted curve at half-maximal effect); settings: TR-UAS-bla HEK293, beta-lactamase ratio, antagonist mode, 18 h
# UniProt P10828, sequence (P10828 whole entry, looked up): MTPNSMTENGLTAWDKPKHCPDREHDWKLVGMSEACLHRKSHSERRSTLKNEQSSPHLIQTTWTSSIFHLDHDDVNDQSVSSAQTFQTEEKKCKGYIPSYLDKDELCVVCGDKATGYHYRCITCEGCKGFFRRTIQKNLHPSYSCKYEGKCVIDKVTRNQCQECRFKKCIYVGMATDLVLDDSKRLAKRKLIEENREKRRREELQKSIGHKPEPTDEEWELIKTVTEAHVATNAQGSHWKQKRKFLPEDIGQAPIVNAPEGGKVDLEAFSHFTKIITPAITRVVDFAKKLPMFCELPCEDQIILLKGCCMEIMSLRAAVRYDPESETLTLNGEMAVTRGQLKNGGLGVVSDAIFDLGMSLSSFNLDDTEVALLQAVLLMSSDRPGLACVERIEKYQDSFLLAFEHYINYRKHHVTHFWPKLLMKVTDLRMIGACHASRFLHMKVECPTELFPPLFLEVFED
# In short: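 TR-UAS-bla GripTite HEK293 cells in 2% charcoal/dextran FBS medium; compounds 0.59 nM to 92 uM with T3 at 0.4nM final, 18 h at 37 C. Beta-lactamase read by CCF4 fluorescence (460/530 nm); Hill fits gave IC50 and efficacy.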
# [13] = qHTS assay for small molecule agonists of the antioxidant response element (ARE) signaling pathway (AID 651741; active = well fitted activation curve with a large enough effect in the signal ratio; inconclusive = small, poorly fitted or top-dose-only effect, or effect the other way, or a change in a side signal; the % refers to the signal ratio; also: potency is read from the fitted curve at half-maximal effect); settings: HepG2 ARE-bla reporter, beta-lactamase FRET ratio, 16 h; activation: at 96 µM (top of the series) unless noted
# In short: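 Stably integrated ARE-beta-lactamase reporter HepG2 cells; 16 h compound incubation, 37 C; LiveBLAzer FRET substrate 2 h at room temperature; fluorescence intensity.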
# [14] = qHTS assay to identify small molecules that stimulate interleukin-8 (IL-8) secretion (AID 651758; active = well fitted activation curve with a large enough effect in the signal ratio; inconclusive = small, poorly fitted or top-dose-only effect, or effect the other way, or a change in a side signal; the % refers to the signal ratio; also: 0% is about no effect); settings: HTRF ratio (665/615); activation: at 92.2 µM (top of the series)
# In short: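 Compounds are added to THP-1 cells (2000 per well) and left 16 hrs at 37 C. A labeled anti-IL-8 antibody pair is then added, and IL-8 secretion is measured by time-resolved FRET after 1-3 hrs at room temperature.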
# [15] = molecular target: Nuclear receptor ROR-gamma (Homo sapiens) (UniProt P51449); assay: qHTS assay for small molecule antagonists of the retinoid-related orphan receptor gamma (ROR-gamma) signaling pathway (AID 651802; active = well fitted curve in the direction sought with a large enough effect; inconclusive = small, poorly fitted or top-dose-only effect, or another doubt; inactive = no such curve, though single readings can be large; an effect the other way counts as inactive or inconclusive; also: potency is read from the fitted curve at half-maximal effect; nearly all actives have a fitted effect of over 60% in size)
# UniProt P51449, sequence (P51449 whole entry, looked up): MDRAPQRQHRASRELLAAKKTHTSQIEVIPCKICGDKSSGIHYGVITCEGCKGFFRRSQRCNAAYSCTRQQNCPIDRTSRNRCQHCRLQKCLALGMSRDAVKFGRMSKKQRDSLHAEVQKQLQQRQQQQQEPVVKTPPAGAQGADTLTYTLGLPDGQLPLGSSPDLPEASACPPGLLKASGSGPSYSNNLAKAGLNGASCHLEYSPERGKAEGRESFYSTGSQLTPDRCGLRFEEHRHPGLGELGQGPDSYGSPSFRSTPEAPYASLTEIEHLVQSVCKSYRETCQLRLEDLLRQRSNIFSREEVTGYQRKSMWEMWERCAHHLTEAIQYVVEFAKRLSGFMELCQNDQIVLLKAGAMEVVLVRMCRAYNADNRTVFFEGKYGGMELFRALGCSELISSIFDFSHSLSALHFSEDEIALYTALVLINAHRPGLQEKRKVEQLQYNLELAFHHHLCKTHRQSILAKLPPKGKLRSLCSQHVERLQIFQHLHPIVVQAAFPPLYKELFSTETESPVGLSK
# In short: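 Luminescence (One-Glo, 30 min RT) measured 16 h after compound addition and doxycycline induction at 37C. Reporter: RORE-luciferase under TET-inducible ROR-gamma in CHO cells.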
# [16] = qHTS assay for small molecule antagonists of the retinoid-related orphan receptor gamma (ROR-gamma) signaling pathway - cell viability counter screen (AID 720652; active = well fitted curve in the direction sought with a large enough effect in the repeat runs; inconclusive = weak or mixed curves; inactive = no such curve, though single readings can be large; an effect the other way counts as inactive or inconclusive;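 also: potency is read from the fitted curve at half-maximal effect; compound exposure lasted 16 hr before ATP read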)
# In short: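 Cytotoxicity counter screen: intracellular ATP (CellTiter-Glo luminescence) measured in the doxycycline-induced CHO RORE-luciferase reporter line after 16 hr compound exposure at 37 C, 5% CO2.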
# [17] = qHTS assay for small molecule agonists of the antioxidant response element (ARE) signaling pathway measured by Nrf2-dependant transcriptional activity - cell viability counter screen (AID 720653; active = well fitted curve in the direction sought with a large enough effect in the repeat runs; inconclusive = weak or mixed curves; inactive = no such curve, though single readings can be large; an effect the other way counts as inactive or inconclusive; also: potency is read from the fitted curve at half-maximal effect); settings: ARE-bla HepG2 viability, CellTiter-Glo ATP luminescence, 16 h; max response: active compounds read low
# In short: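 ARE-bla HepG2 cells treated with compounds for 16 h at 37C; this counter screen measures viability as intracellular ATP by CellTiter-Glo luminescence after 30 min at room temperature.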
# Tags tell the direction and shape of the fitted curve or compound fluorescence and quenching.
compound,measurement,setting,value
C[C@@H]1CC2(OC3C[C@@]4(C)C5=CC[C@H]6C(C)(C)C(O[C@@H]7OC[C@@H](O)[C@H](O)[C@H]7O)CC[C@@]67C[C@@]57CC[C@]4(C)C31)OC(O)C1(C)OC21 (some centres not stated),Potency,[1],"inconclusive: 0.0398 µM [cytotoxic, full curve, poor fit]"
same,Potency,[2],"inconclusive: 44.7 µM [inhibitor, partial curve, poor fit]"
same,Potency,[3],"inconclusive: 25.1 µM [inhibitor, partial curve, poor fit]"
same,Potency,[4],"inconclusive: 22.4 µM [activator, partial curve]"
same,Potency,[5],"inconclusive: 44.7 µM [side channel, rising, partial curve, poor fit]"
same,Potency,[6],"inconclusive: 22.4 µM [activator, full curve]"
same,activation,[7],inconclusive: -17.3%
same,Potency,[8],"inconclusive: 50.1 µM [fluorescent, single point]"
same,Potency,[9],"inconclusive: 15.8 µM [side channel, rising, partial curve, poor fit]"
same,Potency,[10],"inconclusive: 10 µM [falling, full curve]"
same,max response,[11],inconclusive: -40.9%
same,Potency,[12],"inconclusive: 0.0007 µM [side channel, rising, full curve, poor fit]"
same,Potency,[13],active: 75 µM
same,Potency,[14],inactive
same,Potency,[15],active: 21.1 µM
same,Potency,[16],"inconclusive: 59.6 µM [cytotoxic, partial curve, poor fit]"
same,Potency,[17],"inconclusive: 50.1 µM [cytotoxic, single point]"
